PubChem BioAssay AID938 (National Center for Advancing Translational Sciences (NCATS), 2007)
Hit rate of the full screen: of about 73,000 compounds, about 1,800 (2.5%) were called active. The inconclusive results got no clear call from the source; some entries with a clear call stand among them for comparison. Calls come from the whole dose curve; as a rule, active = well fitted activation curve with a large enough effect; inconclusive = small, poorly fitted or top-dose-only effect; inactive = no such curve, though single readings can be large or run the other way. Potencies of inconclusive entries are left out as doubtful fits.

Assay: qHTS Assay for Agonists of the Thyroid Stimulating Hormone Receptor: Activators of Intracellular cAMP Concentrations in Parental HEK 293; note: nearly all actives have a fitted effect of over 55% in size; for activation: % of control where 0% means no effect
Conditions: parental HEK293 CNG cAMP sensor, membrane potential fluorescence; activation: at 57.1 µM (top of the series) unless noted
Summary of the method: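 Parental HEK 293 cells stably expressing a modified CNG channel (no TSHR) report cAMP rise as membrane depolarization. Membrane potential dye with 100 uM RO 20-1724 was loaded for 60 min at room temperature, then compound added for 30 min; fluorescence read at 590 nm.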
Potency is the fitted concentration of half-maximal effect; tags give direction and shape of the fitted curve.

SMILES | activation | Potency
CCn1c(=O)c(C(=O)CN2CCCc3ccccc32)c(N)n(Cc2ccccc2)c1=O | inactive: -7.71% | –
Cc1c(Cl)c(S(N)(=O)=O)cc2c1=NC=NS=2(=O)O | inactive: 10.8% [at 11.4 µM] | –
Cc1cc2ccccc2c(=O)n1CC(=O)N1CCN(c2cccc(Cl)c2)CC1 | – | inconclusive [activator, single point]
CC1=C(C(=O)OCc2ccccc2)C(c2ccc(C3CCCCC3)cc2)NC(=O)N1CCCCCC(=O)O (stereo unspecified) | – | active: 31.6 µM
Cc1onc(-c2ccccc2Cl)c1C(=O)N1CCCCC1C(=O)O (stereo unspecified) | – | inconclusive [activator, single point]
CCOC(=O)c1[nH]c2c(c1C)C(=O)CC(c1ccco1)C2 (stereo unspecified) | – | active: 31.6 µM
Cn1c(=O)c2c(nc(CN3CCc4ccccc4C3)n2CC(=O)c2ccccc2)n(C)c1=O | – | inconclusive [activator, partial curve]
NC(=O)CCCCC(=O)OCCCc1cccs1 | – | inconclusive [activator, single point]
COCCNC(=O)[C@H](C)[C@H]1C[C@]1(C)[C@H](NC(=O)OCc1ccccc1)c1ccccc1 | – | inconclusive [activator, partial curve]
N#Cc1cccc(-c2cncnc2NCc2ccccc2)c1 | – | inconclusive [activator, partial curve]
CCC/C=C(\CCC)C(NC(=O)OCC(C)C)c1ccccc1 (stereo unspecified) | inactive: -5.22% | –
Cc1ccc(Cl)cc1N1CCN(C(=O)CN2C(=O)c3cccc4cccc2c34)CC1 | inactive: 25.2% | –
COc1ccc(Nc2nc(C)c3ccccc3n2)cc1 | inactive: 3.98% | –
O=C(CCCOc1ccccc1)N1CCN(c2ccccn2)CC1 | – | inconclusive [activator, single point]
COc1ccc(C2OC(=O)c3ccccc3S2)cc1 (stereo unspecified) | – | inconclusive [activator, single point]
COc1cccc(-c2nnc(SCC(=O)Nc3cc(C)ccc3OC)n2N)c1 | – | inconclusive [activator, single point]
CN1C(=O)CSc2ccc(NC(=O)N3CCN(c4ccccn4)CC3)cc21 | – | inconclusive [activator, partial curve]
O=C(NCCN1CCN(c2ccccc2)CC1)c1cccn2c(=O)c3ccccc3nc12 | – | inconclusive [activator, full curve]
CC(=O)c1cccc(NC(=O)Nc2cccs2)c1 | inactive: 14.2% | –
CN(N=O)C(=O)N[C@H]1C(O)OC(CO)[C@@H](O)[C@H]1O (stereo partly specified) | inactive: -0.893% | –
Cc1ccccc1-c1nc(NCc2cccs2)c2ccccc2n1 | – | inconclusive [activator, single point]
Cn1c(NCc2ccccc2O)nc2ccccc21 | inactive: 25.9% | –
COc1ccc(-n2c(=O)cnc3cnc(N(C)C)nc32)cc1 | inactive: 14.6% | –

SMILES | activation | Potency
COc1ccc(-c2cc(-n3c(C(F)(F)F)nc4ccccc43)n(CCC#N)n2)cc1 | – | inconclusive [activator, single point]
Cc1ccc(N(CC(=O)NCc2cccs2)S(=O)(=O)c2cccs2)cc1 | – | inconclusive [activator, partial curve]
O=C(CSc1nnc(-c2ccccc2Cl)o1)N1CCCCC1 | – | inconclusive [activator, single point]
Cc1nc(N)sc1-c1csc(N(C)c2ccc(O)cc2)n1 | inactive: -11.3% | –
Fc1ccccc1CSc1nnnn1-c1ccc2c(c1)OCO2 | – | inconclusive [activator, single point]
COc1ccc(C(=O)Nc2ccccc2)cc1[N+](=O)[O-] | – | inconclusive [activator, single point]
COc1cccc(NC(=O)CCCn2c(=O)[nH]c3ccccc3c2=O)c1 | – | inconclusive [activator, partial curve]
COCc1nnc(NC(=O)CS(=O)(=O)Cc2ccccc2)s1 | inactive: 0.984% | –
Cn1c(-c2ccc(Br)o2)nc2ccccc21 | – | inconclusive [activator, partial curve]
O=c1c(-c2ccc(F)cc2)nc2cnc(N3CCNCC3)nc2n1Cc1ccc(F)cc1 | – | inconclusive [activator, single point]
COc1ccc(N(C)S(=O)(=O)c2cccc(C(=O)NC3=NCCS3)c2)cc1 | inactive: 13.8% | –
CC1CCCCN1C(=O)Cn1cc(C(=O)c2ccco2)c2ccccc21 (stereo unspecified) | – | inconclusive [activator, partial curve]
COCCN1C=C(C(=O)OC)C(c2cc(Br)c(OC)c(OC)c2)C(C(=O)OC)=C1 | – | inconclusive [activator, single point]
N[C@@H](C(=O)O)c1ccc(C(=O)O)c(C(=O)O)c1 | – | inactive
CCN(CC)c1ccc2c(c1)OC(N)=C(C#N)C2c1cccnc1 (stereo unspecified) | – | inconclusive [activator, partial curve]
Cc1ccc(C(O)CN2C3=NCCN3c3ccccc32)cc1 (stereo unspecified) | – | inconclusive [activator, single point]
COc1ccccc1N1CCN(C(=O)CSc2nc(C)c(Cc3ccccc3)c(=O)[nH]2)CC1 | – | active: 25.1 µM
CC1=NN(c2ccc(S(=O)(=O)O)cc2)C(=O)/C1=C\c1ccc(Cl)cc1 | inactive: 2.87% [at 11.4 µM] | –
O=C(CSc1nnnn1-c1ccc2c(c1)CCC2)Nc1ccc2c(c1)OCCO2 | – | inconclusive [activator, partial curve]
COCCn1c(=O)c(CCc2ccccc2)nc2cnc(Oc3ccc(OC)cc3)nc21 | – | inconclusive [activator, single point]
O=c1cc(CN2CCN(c3ccccc3)CC2)c2c(ccc3ccccc32)o1 | – | inconclusive [activator, partial curve]
O=C(c1cccc(F)c1)N1CCC2(CC1)CN(Cc1ccccc1)C2 | – | inconclusive [activator, partial curve]
O=C(Nc1ccc2c(c1)OCCO2)c1ccc(Cl)c(S(=O)(=O)N2CCOCC2)c1 | – | inconclusive [activator, partial curve]
